The source gives no read counts; variants with many changes may rest on few reads.

The labels stand for the following.
B1: CPEB3 Ribozyme (parent)
chain: UAACAGGGGGCCACAGCAGAAGCGUUCACGUCGCAGCCCCUGUCAGAUUCUGGUGAAUCUGCGAAUUCUGCUGUAUAUCUC

The data set covers variants of B1. The experiment in a line: self-cleavage, relative activity (ratio to wild type); higher = more cleavage; in vitro, sequencing. The method, boiled down:
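Relative activity was defined as the cleaved/total read fraction for a variant divided by the same fraction for the unmutated ribozyme. CPEB3 self-cleaving ribozyme libraries were made by rounds of error-prone PCR, barcoded, and transcribed in vitro with T7 RNA polymerase for 5 hours at 37°C, and cleavage ran through transcription plus a 15 min DNase I step before EDTA. Illumina sequencing of template-switched reverse transcripts gave the reads, and DNA sequencing mapped the barcodes. Averages come from three batches, using variants with at least 5 reads.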
In the case of A21G G22C G33C G55C U74A, the self-cleavage was determined as 0.11.
Take A21G A28G A45U A64G U67C: the self-cleavage worked out at 0.17.
For A21G U25C U41A U69A U76A the value was 0.16.
The figure for A21G U25C C40U U41C U43C A64U U72A is 0.08; for A21C U72C G73C it is 0.1.
For A21G U25C A75G U80C the value was 0.4.
With A21G U26A U31C A56U U60C U80A, the self-cleavage was 0.04.
Consider A21C U41A U51A, for which the self-cleavage is 0.15.
For A21G U26C U67A the value was 0.24.
The figure for A21G C27U U43A A56U A65G is 0.1; for A21G U25C U31A C40U A57G G70C U78C it is 0.04.
Regarding A21G A28G U60C, the self-cleavage was found to be 0.23.
In the case of A21G A28G A47G, the self-cleavage stood at 0.31.
For the variant A21G G33C A35G U78C, the self-cleavage was found to be 0.16.
For A21G G30U C68U U78C the value was 0.13; for A21G A28G U58G U60A, 0.1; for A21G A28G G53A U80A, 0.25.
The figure for A21G A28G A45U U49C U74A U80C is 0.13.
Turning to A21G U26C A56C U76C, the self-cleavage was found to be 0.16.
For A21G U26C A75U the value was 0.51.
Consider A21G U25C U43C U49C U58C U76C, for which the self-cleavage came to 0.18.
For A21G U26A U43C A45G U48C C71U the value was 0.04.
In the case of A21G U25C U26C U51A, the self-cleavage came out at 0.23.
The figure for A20U U60C A64G U66C U67C is 0.08.
Take A21C G63A U78C: the self-cleavage is 0.1.
For A21G G53C A64G U74A U78C, the self-cleavage came out at 0.65.
For A21G U26A A28G U31C U60A U69C U76C, the self-cleavage stood at 0.03.
As to A21G C40G U49C U51A U72C, the self-cleavage was 0.1.
Regarding A21G C62U U67A, the self-cleavage was found to be 0.15.
The figure for A21G U25C A35G is 0.36.
For A20U U69G C79G the value was 0.13; for A21G U26C G33A U76C, 0.07; for A21G U25C U31C C40U A75U, 0.38.
For A21G U25C C81U the value was 0.06; for A21G A28G A45G U51G G52U G63U U72A, 0.12.
Turning to A21G A28G U49A U51C U54A, the self-cleavage was found to be 0.11.
For A21G U26C A35G A47G U60A the value was 0.08; for A21G C29U U74C, 0.66; for A21G A35G U60G C81A, 0.51.
For the variant A21G C27U A47U U60C, the self-cleavage stood at 0.07.
For A21G G24U U49G A56G A57G U67A the value was 0.03; for A20U U60C A75G, 0.13; for A21G A47G U54A U78A, 0.86.
For A21G A35G U69C U78C the value was 0.7.
For A21G A35G U48A G73C U76C U80C the value was 0.84; for A21G U25C C29U A57G U80A, 0.04; for A21G A28U C29U A65G, 0.22.
As to A21G A47G U49C U54C, the self-cleavage stood at 0.26.
For A21G A45C G52C A57G A75G the value was 0.2; for A21G C27U G63A, 0.29.
For A21G G24A A47U A64G the value was 0.23; for A21G C40U G42A U67C, 0.34; for A21C A45U A56U G70A, 0.06.
For A21G U31C C38G the value was 0.4; for A21G A64G U67C, 0.12; for A21G C37U G52C, 0.3.
With A21G A28G U41C, the self-cleavage was 0.51.
The figure for A21G U26C U58A is 0.2; for A21G U26C G53A U67A U69A U72C U78C it is 0.03.
For A21G U25A U48C U78A the value was 0.15; for A21G U26C U43C G61A U72C, 0.07.
With A21G U25C U49C G61U C81U, the self-cleavage came out at 0.07.
The figure for A21G C37U A56G U58C U74C is 0.2; for A21C A35G U72C it is 0.25.
For A21G G24C U58A the value was 0.05; for A21G U26C A35U U66C, 0.3; for A21G A56U U72C U76C, 0.29.
For A21G G33A C44G U67C the value was 0.06; for A21G A28G U72C, 0.28; for A21G A28G U48A A64G, 0.28.
In the case of A21G A45U A56G A77G, the self-cleavage stood at 0.06.
The figure for A21G A35C C39A A45U is 0.04; for A21G G22C U66C it is 0.19.
In the case of A21G C40A U58C, the self-cleavage worked out at 0.18.
The figure for A21G C38U U60C U72A is 0.11; for A21G U25C A77G it is 0.29; for A21G G73C U78C it is 1.23.
A21G U26A U60C A77U: the self-cleavage came to 0.35.
As to A21G A45U U78G, the self-cleavage is 0.16.
On to A21G C27U U41C U67C, for which the self-cleavage turned out to be 0.06.
With A21G A45U A47G U48C U80C, the self-cleavage was found to be 0.27.
With A21G G63A U69A U76C, the self-cleavage was 0.19.
The figure for A21G U26C A35G A47G U51G is 0.66.
On to A21G A28U U51A, for which the self-cleavage was 0.25.
